In PubChem BioAssay AID2060338 (Molecular Pharmacology Branch, DTP, NCI, 2025):
For part of its entries the source gives two or more results. This is not the full list of results. The source may hold further records. The records of an entry are repeats in other runs, samples, wells, individuals or studies. Counts like (3×) say how often a value occurs here. Dates in brackets are months of testing.

Test system: 556581-035-R-J1-PDC spheroids with HUVEC/MSC, viability
Assay: Anticancer human tumor 556581-035-R-J1-PDC patient-derived ovarian carcinoma cell line growth inhibition [IpAb]
Conditions: for viability, T/C: stronger effect = lower value; for IC50: compound alone, run of 06/01/2021
Description: Combinatorial screen of targeted agents with ipatasertib and abemaciclib in multi-cell type tumor spheroids
A high-throughput screen of multi-cell type tumor spheroids was designed to identify active combinations of targeted small molecules and ipatasertib or abemaciclib. Complex spheroids include a stromal component modeled by human endothelial cells (HUVEC) and fibroblasts modeled by human mesenchymal stem cells (MSCs). The concentration ranges selected for each drug and investigational agent were based upon clinically achievable concentrations if the clinical Cmax of the agent was known.
Compounds. The drugs and investigational agents: ipatasertib (NSC767898), abemaciclib(NSC768073), selumetinib (NSC741078), trametinib (758246), adavosertib (NSC754352), everolimus (NSC733504), sapanisertib (NSC764658), vemurafenib (NSC761431), venetoclax (NSC766270), copanlisib (NSC809693), apelisib (NSC765974), palbociblib (NSC758247), vemurafenib (NSC761431), dabrafenib (NSC764134), ravoxertinib (NSC781343), BMS-387032 (NSC767048), sotorasib (NSC818433), talazoparib (NSC767125) and afursertib (NSC778305), were obtained from the National Cancer Institute (NCI) Developmental Therapeutics Program Chemical Repository. The FDA-approved anticancer drug set is available from the NCI Developmental Therapeutics Program. […] The stock solutions were prepared in dimethyl sulfoxide (DMSO, Sigma-Aldrich, St. Louis, MO, cat. D2650) at 800-fold the tested concentration and stored at -70 degrees C prior to their use. All drugs and investigational agents were tested over a range starting from a high concentration at or near the clinical Cmax and decreasing in half-log increments. If the clinical Cmax for an agent had not been determined, the highest concentration tested was 10 microM.
NCI60 Cell Culture. NCI60 cell lines were obtained from the NCI Developmental Therapeutics Program Tumor Repository. For each lot of cells, the Repository performed Applied Biosystems AmpFLSTR Identifiler testing with PCR amplification to confirm consistency with the published Identifier STR profile for each cell line. Cells were kept in continuous culture for no more than 20 passages. The optimal seeding densities for each of the cell lines at each time point assessed were determined prior to performing the concentration response studies. Briefly, the NCI60 human tumor lines were grown as monolayers in RPMI 1640 medium supplemented with 10% FBS and 2 mmol/L L-glutamine.
An additional 9 lines were from the NCI60 cell line panel including MDA-MB-231 breast carcinoma, MDA-MB-468 breast carcinoma, MCF7 breast carcinoma, Hs578T breast carcinoma, MALME-3M melanoma, SK-MEL-2 melanoma, SK-OV-3 ovarian carcinoma, DU-145 prostate carcinoma, PC-3 prostate carcinoma, all cell lines along with major genetic alterations are listed on Table 2. Pooled donor human umbilical vein endothelial cells (HUVEC, Lonza, cat. CC-2519) and human mesenchymal stem cells (hMSC, Lonza, cat. PT-2501) were purchased from Lonza (Walkersville, MD).
PDMR cell lines were grown in complete medium (DC medium): Dulbecco's modified Eagle's medium (DMEM)/F12 supplemented with 5% fetal bovine serum (FBS), 2 mM L-glutamine, 100 U/mL penicillin and 100 µg/ml streptomycin, 0.4 µg/ml hydrocortisone, 10 ng/ml epidermal growth factor (EGF) recombinant human protein, 24 µg/mL adenine, and 0.1 mg/mL primocin. During culture from frozen stock vials, PDMR cells were cultured in the same medium containing 10 µM Y-27632 (see Table 3). The PDCs were cultured in complete DMEM/F12 media without 10 microM Y-27632 dihydrochloride for at least two passages prior to the screen. The pooled donor HUVEC and hMSC were cultured in endothelial cell growth medium 2 (PromoCell, Heidelberg, Germany, cat. C-22011) and mesenchymal stem cell growth medium 2 (PromoCell, cat. C-28009), respectively. For all experiments, HUVEC and hMSC were used at passages </=5.
[…]
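Also: spheroids exposed to compounds for 7 days before readout.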

| SMILES | viability, T/C (compound alone 0.01 µM) | viability, T/C (compound alone 0.0316 µM) | viability, T/C (compound alone 0.1 µM) | viability, T/C (compound alone 0.316 µM) | IC50 | viability, T/C (compound alone 1 µM) |
| --- | --- | --- | --- | --- | --- | --- |
| CCN1CCN(Cc2ccc(Nc3ncc(F)c(-c4cc(F)c5nc(C)n(C(C)C)c5c4)n3)nc2)CC1 | 102, 105 (2×), 82.8, 92.6, 90.6, 86.8, 90.1, 101, 76.5, 106, 88.1, 111% | 105 (3×), 69.4, 92, 101, 66.3, 108, 92.5, 88, 106, 90.2% | 97.4, 84.2, 63.4, 100, 76.2, 61.7, 94.6, 94.3, 91.8, 107, 83.1, 113, 97.9% | 87.2, 74.2, 62.2, 93.2, 90.5, 68.4, 109, 75.6, 66.9, 92.4, 81.1, 95.9, 67.2% | 592 nM, 966 nM, 784 nM, 869 nM, 838 nM, > 1 µM |  |
| CC(C)NCC(C(=O)N1CCN(c2ncnc3c2C(C)CC3O)CC1)c1ccc(Cl)cc1 (centres undefined) |  |  | 87.8, 94.2, 81.2, 78.4, 87.2, 86, 96.7, 92.3, 89.2, 95.1, 77.2, 104, 94.7% | 66.8, 73.9, 92.8, 69.3, 78.9 (2×), 66.4, 80.9, 71.5, 77.5, 75.2, 81.8, 80.8% | 9.7 µM and 1.92, 8.52, 2.48, 4.67, 9.96, 2.81, 5.85, 9.67, 9.02, 6.18, 1.17, 2.4 µM [2021-06] | 59.2, 67, 62.6 (2×), 59.4, 65.6, 69.7, 65.8, 68.5, 81.8, 50.7, 72.9, 58.4% |
